#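 How tested: cells in 96-well plates exposed to compound for 48 hours at five concentrations. GI50 marks 50% less growth.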 Some entries of the source have several records that differ or are many. This list holds those alone. There may be further records. For part of these data: A record mostly stands for its own series of concentrations, not given here; some values may only mark the edge of a range. For part of these data: Values that stand side by side repeat one measurement (runs, samples, wells, individuals or studies). What stands in brackets tells the records apart. A, B and so on number the origins entry by entry.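 At the TGI there is no net growth.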 Where a SMILES comes first, the peptide text is derived from it. [ ]: non-standard residue; d: D form. The star is where a group is joined. Dolaproine = CO[C@@H]([C@@H]1CCCN1)[C@@H](C)C(=O)O; Dil = CC[C@H](C)[C@H](NC)[C@@H](CC(=O)O)OC; X2 = C[C@@H](N*)[C@@H](O)c1ccccc1; NMeV = CN[C@H](C(=O)O)C(C)C
# How the values were obtained:
# Assay in all cases: NCI tumour cell line growth inhibition, 48 h
# IGROV1 ovarian = test system: IGROV1 ovarian
# HL-60(TB) leukemia = test system: HL-60(TB) leukemia
# SF-268 CNS = test system: SF-268 CNS
# SN12C renal = test system: SN12C renal
# SNB-75 CNS = test system: SNB-75 CNS
# SK-OV-3 ovarian = test system: SK-OV-3 ovarian
# NCI/ADR-RES ovarian = test system: NCI/ADR-RES ovarian
# UACC-257 melanoma = test system: UACC-257 melanoma
# SF-295 CNS = test system: SF-295 CNS
# SK-MEL-2 melanoma = test system: SK-MEL-2 melanoma
# HS 578T breast = test system: HS 578T breast
# UO-31 renal = test system: UO-31 renal
# HOP-92 NSCLC = test system: HOP-92 NSCLC
# OVCAR-4 ovarian = test system: OVCAR-4 ovarian
# MALME-3M melanoma = test system: MALME-3M melanoma
# A498 renal = test system: A498 renal
# NCI-H460 lung = test system: NCI-H460 lung
# T-47D breast = test system: T-47D breast
# OVCAR-5 ovarian = test system: OVCAR-5 ovarian
# 786-0 renal = test system: 786-0 renal
# CCRF-CEM leukemia = test system: CCRF-CEM leukemia
# TK-10 renal = test system: TK-10 renal
# DU-145 prostate = test system: DU-145 prostate
# NCI-H226 lung = test system: NCI-H226 lung
# CAKI-1 renal = test system: CAKI-1 renal
# SF-539 CNS = test system: SF-539 CNS
# UACC-62 melanoma = test system: UACC-62 melanoma
# SW-620 colon = test system: SW-620 colon
# HCT-15 colon = test system: HCT-15 colon
# OVCAR-3 ovarian = test system: OVCAR-3 ovarian
smiles,measurement,setting,value
COc1cc2c(c(OC)c1OC)-c1ccc(SC)c(=O)cc1[C@@H](NCc1ccccc1[N+](=O)[O-])CC2,TGI,IGROV1 ovarian,46 nM and > 100 µM
same,TGI,HL-60(TB) leukemia,10.5 nM and 16.5 µM
same,TGI,SF-268 CNS,81.4 nM and 27.3 µM
same,TGI,SN12C renal,84.1 nM and 77.4 µM
same,TGI,SNB-75 CNS,7.37 nM and > 100 µM
same,TGI,SK-OV-3 ovarian,41.6 nM and > 100 µM
CC1CCCc2sc3nc(NNC(=O)c4cnccn4)n(-c4ccccc4)c(=O)c3c21 (stereo unspecified),TGI,NCI/ADR-RES ovarian,"> 27.7 µM [sample A, mean of 2 tests] and 2.27 µM [sample B, mean of 2 tests]"
COc1cc(C2C3=C(COC3=O)N(CCO)c3cc4c(cc32)OCO4)cc(OC)c1OC (stereo unspecified),TGI,HL-60(TB) leukemia,921 nM and 12.1 µM
same,GI50,UACC-257 melanoma,391 nM and 9.35 µM
same,TGI,SF-295 CNS,12.5 µM and 650 nM
same,TGI,SK-MEL-2 melanoma,1.04 µM and > 16.8 µM
same,TGI,HS 578T breast,12.5 µM and 1.06 µM
same,GI50,UO-31 renal,818 nM and > 16.8 µM
CC[C@H](C)[C@@H]([C@@H](CC(=O)N1CCC[C@H]1[C@H](OC)[C@@H](C)C(=O)N[C@H](C)[C@@H](O)c1ccccc1)OC)N(C)C(=O)[C@@H](NC(=O)[C@@H](NC)C(C)C)C(C)C (H-[NMeV]V[Dil][Dolaproine]-X2),GI50,UACC-257 melanoma,"> 50 µM [sample A, mean of 2 tests] and 107 nM [sample B, 1 test]"
same,GI50,HOP-92 NSCLC,"161 nM [sample A, mean of 2 tests] and > 100 µM [sample B, 1 test]"
same,GI50,OVCAR-4 ovarian,"9.28 nM [sample A, mean of 2 tests] and > 78.1 µM [sample B, mean of 2 tests]"
same,GI50,MALME-3M melanoma,"199 nM [sample A, mean of 2 tests] and < 10 nM [sample B, mean of 2 tests]"
COc1cccc2c1C(=O)c1c(O)c3c(c(O)c1C2=O)C[C@@](O)(C(=O)CO)C[C@@H]3OC1CC2C(OCN3CN2COC2C(C)OC(O[C@H]4C[C@](O)(C(=O)CO)Cc5c(O)c6c(c(O)c54)C(=O)c4c(OC)cccc4C6=O)CC23)C(C)O1 (stereo partly specified),TGI,A498 renal,"241 nM, 12.9 nM, 34.1 nM"
same,TGI,NCI-H460 lung,"67.1 nM, 3.22 µM, 1.05 µM"
same,TGI,T-47D breast,"123 nM, 25 µM, 2.84 µM"
same,TGI,IGROV1 ovarian,"644 nM, 6.45 µM, 1.2 µM"
same,TGI,OVCAR-5 ovarian,"740 nM, 348 nM, 71.3 nM"
same,TGI,786-0 renal,476 nM and 45.3 nM
same,TGI,HL-60(TB) leukemia,205 nM and 9.09 nM
same,TGI,CCRF-CEM leukemia,803 nM and 12.7 nM
same,TGI,TK-10 renal,192 nM and 25 µM
same,TGI,SF-268 CNS,"506 nM, 75.2 nM, > 100 µM"
same,TGI,DU-145 prostate,"381 nM, 2.92 µM, 13.6 µM"
same,TGI,NCI-H226 lung,"639 nM, 164 nM, 48.7 nM"
same,TGI,CAKI-1 renal,25 µM and 1.31 µM
same,TGI,SF-539 CNS,343 nM and 15.4 nM
same,TGI,UACC-62 melanoma,170 nM and 12.2 nM
same,TGI,SW-620 colon,3.48 µM and > 100 µM
same,TGI,HCT-15 colon,25 µM and 633 nM
same,TGI,HS 578T breast,"437 nM, 25 µM, > 100 µM"
same,TGI,OVCAR-3 ovarian,"826 nM, 25 µM, 6.45 µM"

# Reference: PubChem BioAssay (NCI)
